This is one part of the list. At the low end of the ranking the order means little.
The sequences below were run against SIX1 homeodomain (reference allele) (UniProt Q15475) (assay: universal protein binding microarray). Conditions: Universal all-10-mer PBM (8x60K, AMADID 030236), 300 nM GST-tagged protein, Alexa Fluor 488 anti-GST; buffer, salt, pH and temperature not stated; high values mean tight binding; most listed sequences are background and not binding sites; double strand, one strand shown.

Row | Sequence | binding signal
1 | CTTCCACC | -0.191 E-score
2 | CGTTGGGA | -0.114 E-score
3 | CAAGTTCA | -0.0544 E-score
4 | TCCCGTCA | -0.145 E-score
5 | GCTGTGGA | 0.143 E-score
6 | CGAACACC | 0.243 E-score
7 | ATTCCATG | -0.0628 E-score
8 | CGGCCGCC | -0.165 E-score
9 | AAGAGCCA | -0.124 E-score
10 | CATTCTCC | -0.119 E-score
11 | ATTTAGAC | 0.134 E-score
12 | AGATCGCG | 0.22 E-score
13 | ACGGTCAG | -0.288 E-score
14 | GCGCTGTA | -0.108 E-score
15 | GAGGCACA | -0.21 E-score
16 | GTTTTTCA | -0.169 E-score
17 | TCTCCCCA | 0.22 E-score
18 | ACGCCAGG | 0.0961 E-score
19 | CATGTGAG | 0.152 E-score
20 | AAGTGCAG | -0.22 E-score
21 | GCGACTAA | -0.111 E-score
22 | GGTAGAAC | -0.227 E-score
23 | TATGAGCA | 0.0495 E-score
24 | CTTGTCAC | -0.27 E-score
25 | CCAAGCTC | -0.143 E-score

Row | Sequence | binding signal
26 | AAGTCAGG | -0.172 E-score
27 | CCTCCTAG | 0.0733 E-score
28 | AATAGCCT | 0.0463 E-score
29 | ACACGTGG | -0.0949 E-score
30 | CGAAGTGA | -0.0232 E-score
31 | AGTGATAT | 0.451 E-score
32 | CAACATGA | -0.174 E-score
33 | AGTAGCCA | -0.191 E-score
34 | CTGGGCTA | -0.00118 E-score
35 | AAAGAAGC | -0.342 E-score
36 | CCTATCCA | 0.232 E-score
37 | GGGGAGAC | 0.0858 E-score
38 | CTGACAGA | 0.081 E-score
39 | ATATAATC | 0.275 E-score
40 | AGCTGCGA | -0.0992 E-score
41 | ATGGAGCC | -0.0811 E-score
42 | CTGTAGAC | -0.159 E-score
43 | AGGGTAGC | -0.00115 E-score
44 | AACTTGCT | -0.277 E-score
45 | ATAAGGGA | 0.00135 E-score
46 | ACGGCTAT | 0.0634 E-score
47 | CAGTCTCA | -0.0203 E-score
48 | GACAACCC | -0.126 E-score
49 | ACACTAGC | -0.0114 E-score
50 | GTACAAGA | -0.162 E-score

Row | Sequence | binding signal
51 | ATATGATA | 0.443 E-score
52 | GGGGAAGA | 0.113 E-score
53 | CGTCTGGC | -0.0601 E-score
54 | AGCGCTCC | -0.163 E-score
55 | ATATGAAA | 0.0421 E-score
56 | CTCGCCTC | -0.0845 E-score
57 | AGCAAGAA | -0.137 E-score
58 | ACCCGTCG | -0.0508 E-score
59 | ACAGATCA | 0.338 E-score
60 | ACGACATC | -0.139 E-score
61 | TGGGGGAA | -0.106 E-score
62 | AGGGTTAA | -0.0894 E-score
63 | CCGCAGTA | -0.0172 E-score
64 | TCAAAGGA | -0.162 E-score
65 | ATTACTCA | 0.0397 E-score
66 | TGAAGGAA | -0.339 E-score
67 | AGAAACTA | -0.224 E-score
68 | GACCTGCC | -0.251 E-score
69 | GCAGGTGA | -0.0188 E-score
70 | ACACCGAC | 0.256 E-score
71 | CGCGGATA | 0.388 E-score
72 | CTTATCTC | 0.0638 E-score
73 | AATTGCTC | -0.227 E-score
74 | GTAAATTA | -0.199 E-score
75 | CTTGATCA | 0.218 E-score

Row | Sequence | binding signal
76 | TCCCAAAA | -0.117 E-score
77 | GAGGCGGA | 0.0158 E-score
78 | ATCCAGAC | 0.0875 E-score
79 | GACAGATC | 0.286 E-score
80 | ATTATGCC | 0.109 E-score
81 | ACAGATAC | 0.341 E-score
82 | GAAGCGCA | -0.293 E-score
83 | CACGCTAC | -0.107 E-score
84 | CCCCGAAA | 0.0522 E-score
85 | AGCGAAGA | -0.042 E-score
86 | GCGGTTGA | -0.0628 E-score
87 | ATGACACA | -0.0804 E-score
88 | GCTGCCCC | -0.0741 E-score
89 | GCGAAATA | -0.0624 E-score
90 | CGTTAACC | -0.0549 E-score
91 | ATGAGGCC | -0.244 E-score
92 | GCAACCGA | 0.0749 E-score
93 | CTAAGGCA | -0.25 E-score
94 | CTAATTAG | -0.0446 E-score
95 | ACACATCC | -0.16 E-score
96 | CAGGGCTC | -0.0208 E-score
97 | ACATCGGT | 0.0242 E-score
98 | AGTCTTTC | -0.228 E-score
99 | GTAGGCGA | 0.0588 E-score
100 | CCGAATGA | 0.127 E-score

Row | Sequence | binding signal
101 | CCACTGCC | -0.104 E-score
102 | TAGCTTGA | -0.0241 E-score
103 | GGGGCGTA | 0.166 E-score
104 | GGCGGATA | 0.403 E-score
105 | GGTGAGTA | 0.0492 E-score
106 | GCTCATGA | 0.0179 E-score
107 | CGGGTGTA | 0.265 E-score
108 | ACTCATTG | -0.123 E-score
109 | CGGAACAC | 0.0298 E-score
110 | AACCGACT | -0.173 E-score
111 | AACTCAGA | -0.0228 E-score
112 | CGCTGGAG | -0.111 E-score
113 | CCGTTTAG | 0.0892 E-score
114 | GACAGTCA | -0.259 E-score
115 | AAAAACTC | -0.0506 E-score
116 | ATGGTGTA | 0.305 E-score
117 | GATTTCAC | 0.056 E-score
118 | AACAACGC | -0.0876 E-score
119 | ATCCTGAC | 0.228 E-score
120 | GGGATCAA | 0.386 E-score
121 | TAACAGTA | -0.0329 E-score
122 | CAGCGTCA | 0.0347 E-score
123 | CCCCCAGC | -0.196 E-score
124 | CTAAAGCA | -0.185 E-score
125 | ACCTGCGT | -0.0701 E-score

Row | Sequence | binding signal
126 | AGCATGGC | -0.309 E-score
127 | TACTCCTA | 0.096 E-score
128 | ACGTCCGA | -0.0253 E-score
129 | TAAGGAGA | 0.0208 E-score
130 | CACGCCGA | -0.0244 E-score
131 | TAGGAGCA | -0.202 E-score
132 | AAACCGGC | 0.0397 E-score
133 | CGCAACCG | 0.0596 E-score
134 | ATGTAGCA | -0.0886 E-score
135 | AATCCTTC | 0.0148 E-score
136 | GACCGACA | -0.0563 E-score
137 | GCAGGAGA | 0.153 E-score
138 | GAAGATAA | 0.154 E-score
139 | AACTACAG | -0.126 E-score
140 | CTGCAGCA | -0.0458 E-score
141 | GCTCCCCA | -0.127 E-score
142 | ATGCAAAA | -0.104 E-score
143 | CACTAATA | 0.215 E-score
144 | ATAATAGG | 0.168 E-score
145 | ATCTATGA | 0.16 E-score
146 | AAAGATGC | -0.276 E-score
147 | GCTTTCTA | -0.0932 E-score
148 | GTCACTAA | -0.0161 E-score
149 | AAACGCAG | -0.0959 E-score
150 | CGATTTCC | -0.264 E-score

Row | Sequence | binding signal
151 | AAGATTAT | 0.154 E-score
152 | ACGCGGCC | -0.218 E-score
153 | AAGGCTAT | 0.149 E-score
154 | AACTGCGC | -0.102 E-score
155 | TAAATATA | 0.14 E-score
156 | AAATCCCT | 0.0687 E-score
157 | AAGAAACA | -0.197 E-score
158 | CGCTCACA | -0.0331 E-score
159 | AATCAACC | -0.205 E-score
160 | CGTGGGAA | -0.218 E-score
161 | GACTTGGA | 0.0302 E-score
162 | TTCGGCAA | -0.191 E-score
163 | GGAAAGCC | -0.176 E-score
164 | AAACGTGC | -0.358 E-score
165 | AGCCCCAC | 0.0896 E-score
166 | AACGAATC | 0.0888 E-score
167 | GGTTTTAC | -0.101 E-score
168 | CTACGTAC | 0.0897 E-score
169 | AAGGGAAC | -0.233 E-score
170 | CCTGCCCG | -0.008 E-score
171 | AAAGGCGA | -0.0981 E-score
172 | GGTCCTAA | -0.0964 E-score

— article PMC10668032
